Measurements as given in PubChem BioAssay AID1963576 (National Center for Advancing Translational Sciences (NCATS), 2024).
About 60 (0.1%) of roughly 46,000 compounds were called active. About 3% were inconclusive and are not listed. The call rests on the fitted dose curve; in most records, active means well fitted inhibition curve with a large enough effect; inconclusive means small, poorly fitted or top-dose-only effect; inactive means no such curve, though single readings can be large or run the other way. Some of the results follow.

test: Primary qHTS assay for Inhibitors of ovarian cancer metastasis using an organotypic tumor microenvironment (TME) model.; further: nearly all actives have a fitted effect of over 65% in size;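 on activity change, negative = inhibition: plate controls were DMSO wells for no effect and tomatine positive control wells for full effect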; conditions: SKOV3ip1-GFP adhesion/invasion on 3D omental model, fluorescence; series mostly up to 45.8 µM; activity change, negative = inhibition: at the top concentration
In short: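 Adhesion/invasion was scored as fixed GFP-labeled SKOV3ip1 cell counts (488/509 nm), normalized to DMSO and tomatine controls. Cancer cells in serum-free medium, with four compound doses (0.36-46 umol/L), sat 2 hr at RT then 16 hr at 37 C on a 48 hr fibroblast/mesothelial/ECM culture.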

outcome, inactive:
Cc1ccccc1-c1noc(-c2ccc(NCc3ccco3)c([N+](=O)[O-])c2)n1
CCN(CC)C(=O)C1CCN(S(=O)(=O)c2c(C)noc2/C=C/c2cccc(OC)c2)CC1
CCC(C)NC(=O)CCCc1nnc2n(CC(C)C)c(=O)c3sccc3n12 (configuration not stated)
Cc1ccc(S(=O)(=O)C(CNC(=O)C(=O)NCCc2ccccc2)c2cccs2)cc1 (configuration not stated)
Cc1ccc(NC(=O)CC2Nc3ccccc3NC2=O)cc1C (configuration not stated)
O=C(CN1C(=O)CSc2ccc(S(=O)(=O)N3CCCC3)cc21)Nc1cccc(Cl)c1
COCCCNC(=O)c1ccc(Cn2c(=O)c3ccccc3n(Cc3c(C)cc(C)cc3C)c2=O)cc1
COc1ccc(-c2nc3n(n2)C(c2ccc(OC)c(OC)c2)C(C(=O)Nc2cccnc2)=C(C)N3)cc1 (configuration not stated)
CCc1ccc(C2C(C(=O)Nc3ccccc3C)=C(C)Nc3nc(SCc4cccc(OC)c4)nn32)cc1 (configuration not stated)
CCOC(=O)CC(NC(=O)Cn1nnc(-c2ccccc2F)n1)c1ccccc1Cl (configuration not stated)
CC(C)(Oc1ccc(Br)cc1)C(=O)Nc1cc(-c2nc3ccccc3[nH]2)ccc1Cl
COc1ccccc1CNC(=O)CN1N=C(c2ccccc2)CCC1=O
CCOc1ccc(NC(=O)c2oc3ccccc3c2NC(=O)c2ccc(OC)cc2OC)cc1
Fc1ccccc1N1CCN(c2nccn3nc(-c4ccc(Br)cc4)cc23)CC1
COc1cc(CNCCSc2nnnn2C)cc(Cl)c1OCc1ccccc1
Cc1ccccc1NC(=O)c1oc2c(c1C)-c1nn(Cc3cccc(Cl)c3)cc1CC2
CCCCN(CC)CCNC(=O)c1cc2c(=O)n(CC)c3ccccc3c2s1
CCOc1ccc(S(=O)(=O)Nc2cccc(-c3ccc(N4CCCC4)nn3)c2)cc1
COc1ccc(CCNC(=O)c2csc3c2CCCCC3)c(OC)c1
Cc1ccc(C)c(NC(=O)Cn2ncc3c([nH]c4ccccc43)c2=O)c1

Activity change, negative = inhibition, inactive:
CCOc1ccc(NC(=O)c2cc(S(=O)(=O)NC3CCCCCC3)ccc2F)cc1 -6.6%
COCCCNC(=O)c1nn(-c2ccc(C)cc2)nc1CO -4.2%
O=c1oc2ccccc2c(N2CCN(c3ccccc3F)CC2)c1CN1CCCC1 3.17%
CCOc1ccc(C2CC(=O)c3c([nH]c(C(=O)OCC4CCCCC4)c3C)C2)cc1 (configuration not stated) -10.8%
CCOc1ccc(-n2c(=O)c3c(C)c(C)sc3n(CC(=O)NCCc3ccccc3)c2=O)cc1 0.111%
Cc1ccc(NC(=O)/C=C\C(=O)N(c2ccc(C(C)C)cc2)C(C(=O)NCc2ccco2)c2ccc(F)cc2)cc1 (configuration not stated) 6.25%
CCOc1ccccc1NC(=O)CSc1nccn1-c1cccc(C)c1 -1.55%
COc1ccc2c(Sc3ccc(C)cc3)c(C(=O)NC(C)C)[nH]c2c1 -11.4%
CCCc1cc(=O)oc2cc(C)c3c(-c4ccccc4)coc3c12 14.5%
COc1cccc(NC(=O)C(Cc2ccccc2)NS(=O)(=O)c2ccc3c(c2)c(=O)n(C)c(=O)n3C)c1 (configuration not stated) 33.9%
Cc1cccc(CNC(=O)Cn2ccc3cc(S(=O)(=O)N4CCCCCC4)ccc32)c1 -8.57%
COc1ccc(Cl)cc1NC(=O)c1c(NCc2cccnc2)sc2c1CCC(C)C2 (configuration not stated) -15.8%
CC1CCCCN1CCCNC(=O)CN1C(=O)c2cccnc2Oc2ccccc21 (configuration not stated) -8.7%
COc1ccccc1NC(=O)C1=C(C)Nc2c(C(=O)Nc3cccc(C)c3)cnn2C1c1ccccc1Cl (configuration not stated) -5.57%
Cc1ccc(Cl)cc1NC(=O)CCCn1c(=O)c2cccn2c2cccnc21 -1.15%
COc1cc(NC(=O)CCn2nc(C)c(S(=O)(=O)N3CCCCC3)c2C)cc(OC)c1OC 10.5%
COc1ccc(CCNC(=O)c2ccc(Cn3c(=O)c4ccccc4n(CC(=O)C(C)(C)C)c3=O)cc2)cc1OC 40.1%
Cc1ccccc1C(=O)N(Cc1sccc1C)C1CCS(=O)(=O)C1 (configuration not stated) 3.95%
CCCCN(CC)C(=O)C1CCCN(c2ncnc3onc(C)c23)C1 (configuration not stated) 14.7%
CCN1CCN(C(c2ccc(SC)cc2)c2c(O)cc(C)n(CCOC)c2=O)CC1 (configuration not stated) 13.7%
C[C@@]12C[C@@]3(O)O[C@@H](O1)[C@]1(COC(=O)c4ccccc4)[C@@H]3C[C@@]12O[C@@H]1O[C@H](CO)[C@@H](O)[C@H](O)[C@@H]1O 14.6%
COc1cc(C(=O)NCC(c2ccc(Cl)cc2)N2CCOCC2)cc(OC)c1OC (configuration not stated) -3.07%
CCOC(=O)c1ccc(CN(Cc2ccc(Br)cc2)S(=O)(=O)c2cccc(Cl)c2C)cc1 -17.6%
O=c1cc(-c2ccc(F)cc2)nc(SCc2nc(-c3ccc(Cl)cc3)no2)[nH]1 25.4%
CCOC(=O)c1c(C)[nH]c(C)c1S(=O)(=O)NCC(=O)NCc1cccc(C)c1 1.97%
O=C(Cn1c(=O)nc(-c2ccccc2)c2ccccc21)NCc1ccccc1Cl 2.1%
CCS(=O)(=O)c1ncc(N(Cc2ccco2)Cc2ccccc2F)c(C(=O)Nc2cccc(Cl)c2)n1 0.643%
Cc1ccc(N2CCN(C(=O)c3cn(C)c4ccc(S(=O)(=O)N(C)C)cc4c3=O)CC2C)cc1 (configuration not stated) -3.03%
CO[C@H]1C[C@@H]2CC[C@@H](C)[C@@](O)(O2)C(=O)C(=O)N2CCCC[C@@H]2C(=O)O[C@H]([C@H](C)C[C@@H]2CC[C@H](OCCO)[C@H](OC)C2)CC(=O)[C@H](C)C=C(C)[C@@H](O)[C@@H](OC)C(=O)[C@H](C)C[C@H](C)C=CC=CC=C1C 10.9%
O=C(CN1N=C(c2ccc(Cl)cc2)CCC1=O)NCCc1ccccc1 3.8%
CCc1c(C)nc2nncn2c1NCc1ccc(Cl)cc1 18.6%
Cc1ccc(NC(=O)Cn2nc(Cc3ccncc3)c3ccccc3c2=O)c(Cl)c1 8.26%
COc1ccc(CNC(=O)CS(=O)Cc2nc(-c3cccc(C)c3)oc2C)cc1 (configuration not stated) 4.17%
Cc1nc(SCCOc2ccccc2F)[nH]c(=O)c1Cc1ccccc1 -5.12%
CCCCNc1nc2ccccc2c2nc(-c3ccccc3)nn12 1.27%
Cc1ccc(S(=O)(=O)NCC2CCC(C(=O)NCCCOC(C)C)CC2)cc1 (configuration not stated) 6.25%
CCOC(=O)COc1ccc(/C=C(\C#N)c2nc3ccc(C)cc3[nH]2)cc1OC -7.42%
CCCCOc1ccc(C(=O)Nc2cc(-c3ccc(C)cc3)no2)cc1 10.3%
CCOC(=O)c1sc(N2C(=O)c3oc4ccccc4c(=O)c3C2c2ccc(C(C)(C)C)cc2)nc1C (configuration not stated) 6.97%
Cc1ccccc1CNC(=O)Cn1c(C)c2cnn(-c3ccccc3)c(=O)c2c1C 12.8%
Cc1ccc2c(c1)-c1onc(C(=O)N(C)c3cccc(C(F)(F)F)c3)c1CO2 7.42%
CCc1nc2ccc(C(=O)NCc3ccc(OC)c(OC)c3)cc2nc1CC -0.279%
Cc1cccc(NC(=O)CSc2nc(-c3cccc(C)c3)nc3c2Cc2c(CO)cnc(C)c2O3)c1 -3.9%
CC1(C)Cc2c(c(N3CCOCC3)nc3sc(C(=O)Nc4ccc(Cl)cc4)c(N)c23)CO1 -1.7%
Cc1ccc2c(CC(=O)Nc3cccc(C(F)(F)F)c3)coc2c1 -10.6%
Cc1ccc(CNC(=O)c2ccc3c(c2)CCN3S(=O)(=O)c2ccccc2)cc1 0.882%
Cc1oc2ncn(CC(C)C)c(=O)c2c1C(=O)NCCc1ccc(Cl)cc1 7.68%
CCC1CCCCN1Cc1c(O)ccc2c(=O)c(Oc3ccccc3Cl)c(C(F)(F)F)oc12 (configuration not stated) -5.05%
Cc1cccn2c3c(c(=O)nc12)C(c1cccc(F)c1)CC(=O)N3 (configuration not stated) 11.8%
CCc1ccc(NC(=O)Cn2ccn(-c3ccc(OC)cc3)c(=O)c2=O)cc1 -7.9%
Cc1ccc(N(C)C(=O)CC(C)S(=O)(=O)c2ccc3c(c2)NC(=O)CO3)cc1 (configuration not stated) -7.58%
CC(=O)c1ccc(S(=O)(=O)Nc2ccc(-c3ccc(N4CCCCC4)nn3)cc2)cc1 5.16%
COc1ccc(Cn2c(C(=O)O)c(CNC3CCCC3)c3ccc(C)cc32)cc1 7.75%
CCC(=O)N1c2ccccc2CC1C(=O)N1CCN(c2cccc(OC)c2)CC1 (configuration not stated) 3.62%
CCOc1ccc(OCC)c(NS(=O)(=O)c2c(C)[nH]c(=O)[nH]c2=O)c1 -4.73%
O=C(Cn1cnc2nc3c(cc2c1=O)CCCC3)N1CCN(c2cccc(C(F)(F)F)c2)CC1 4.52%
N[C@@H](Cc1c[nH]c2ccc(O)cc12)C(=O)O 1.56%
Cc1ccc(C)c(NC(=O)CSc2c(C)cnc3c2c(=O)n(C)c(=O)n3C)c1 12.8%
CCOc1ccc(NC(=O)CSc2nc(-c3cccc(Cl)c3)nc3c2Cc2c(CO)cnc(C)c2O3)cc1 14.9%
COC(=O)c1cc2oc(C)cc2n1Cc1cc(C)ccc1C 13.8%
Cc1cccc(NC(=O)CC2Nc3cccc4cccc(c34)NC2=O)c1 (configuration not stated) -0.83%
COc1cccc(NC(=O)CCc2nc(-c3ccc(C(C)(C)C)cc3)no2)c1 -8.23%
CN(c1ncnc2c1c(-c1ccccc1)cn2-c1cccc(Cl)c1)C1CCCCC1 5.09%
Cc1ccc(-c2nnn3c2nc(NCCc2ccccc2)c2ccccc23)cc1 13.2%
Cc1cc2c(cc1S(=O)(=O)CCC(=O)N(C)C1CCCCC1)OCC(=O)N2 11.2%
COCCN(Cc1ccco1)C(=O)Cn1ncc2c([nH]c3ccccc32)c1=O -9.6%
CCCCN1C(=O)CN(C2CCCCCC2)C(=O)C1c1ccc(OCC)c(OC)c1 (configuration not stated) -8.05%
Cc1ccc(C)c(C(=O)CSc2nc(-c3ccccc3)nc3c2CCCC3)c1 -15.9%
Cc1c(Cl)cccc1NC(=O)N1CCC(CN2CCOCC2)CC1 9.36%
Cc1cccc(-n2c(=O)c3c(c4cc(C)ccc4n3C)n(C)c2=O)c1 -0.459%
COc1cc(C)c(Sc2cnc(NC(=O)c3ccc(CNC(C)C(C)(C)C)cc3)s2)cc1C(=O)N1CCN(C(C)=O)CC1 (configuration not stated) 19%
Cc1ccc(-c2nnc(Nc3cccc(Br)c3)c3ccccc23)cc1S(=O)(=O)N1CCCCC1 -1.6%
